± gives the standard deviation of the averaged measurements. Over roughly 4,000 sequences, “arbitrary fluorescence units” has its median near 830; the highest 2% begin near 6,500. The list lacks most of the strong results.
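Note: Full-length recombinant human RUNX1 bound to double-stranded DNA microarray spots, detected with an Alexa488-labelled secondary antibody after the anti-RUNX1 primary, read as scanned spot fluorescence.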

UniProt Q01196, sequence (Q01196 whole entry): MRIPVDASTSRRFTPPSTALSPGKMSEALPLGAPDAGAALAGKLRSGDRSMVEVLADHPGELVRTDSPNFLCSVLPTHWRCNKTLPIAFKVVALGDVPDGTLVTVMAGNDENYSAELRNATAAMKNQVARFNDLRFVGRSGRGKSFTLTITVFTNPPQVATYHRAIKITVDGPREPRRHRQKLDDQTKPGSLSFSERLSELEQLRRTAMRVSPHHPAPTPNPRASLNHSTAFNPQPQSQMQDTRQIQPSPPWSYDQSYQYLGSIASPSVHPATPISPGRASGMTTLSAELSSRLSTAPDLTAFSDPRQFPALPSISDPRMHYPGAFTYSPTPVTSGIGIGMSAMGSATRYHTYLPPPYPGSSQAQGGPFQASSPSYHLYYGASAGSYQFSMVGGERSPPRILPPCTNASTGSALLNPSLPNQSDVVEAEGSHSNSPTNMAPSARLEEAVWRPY

The assay has as its target RUNX1 (UniProt Q01196). Briefly: RUNX1 binding intensity (PBM fluorescence), RUNX1 alone (arbitrary fluorescence units); higher = stronger binding. As to conditions: RUNX1 concentration 2 nM; ETS1 concentration 0 nM. As for the experimental part:
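gcPBM on 36-bp genomic-derived probes (partner site mutated) containing one RUNX1 site and no ETS1 site. Recombinant human RUNX1 (2 nM) was incubated alone or with ETS1 (25 nM) and detected by anti-RUNX1 antibody fluorescence. Values are medians over 4 replicate spots (not normalised). The probes sit in constant array flanks that are not printed.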
For CCCGTTCTCTGGAAGTGCGCGGGTTGGAGCTGAAGC, the RUNX1 binding intensity was determined as 751.
With CGTCGCTGCGGTCCCTGCCGCCGAAACCATTAAGGA, the RUNX1 binding intensity worked out at 950.
With ACAGCGCTGACCGCGGAGGTCCAACCGTAAGAATGT the figure was 1300.
With GTGTGGTCAGATACAGCCCAGCCACATGAAGAGGCA the figure was 727.
In turn, ATCTTACGTAGCAGTCAGGTGTTTTGTGGTTTGCAG gave an RUNX1 binding intensity of 1330.
With GCTGCGCTTCTGCGGGATAGACTTTCGGCCGCCGGC the figure was 788.
On to GTGCCTCACCGCTCCCGGCGCTGCGGGATGACGTCA, for which the RUNX1 binding intensity worked out at 760.
With CTGCCCAGCCACTGCCTGCCCAACCACAGACTGACA the figure was 1260; with CCCCTCCGCGTGGGTTGCACCTGCTAACCACAGAGC, 1010; with CAGACCCGGCGTGGACGAAGCTCGGGAACCACAACA, 784.
With TGGGTTGACCTAGCCACAGGCAGGATCTGGCTGCCA the figure was 654; with GCTTCAGGCTTACGGGGCGCACACTGCCGCAAAGGC, 706.
With AAACCAGAGAAGAAGTGGCACCACATGGCCAGACTG the figure was 773; with TATCATTTTTACCACAGAGGTACAGGCAATTGTTTC, 1710; with GGGTCTCCAGCAAGGTTGGAGCTGAACCCGCGCTGC, 624.
CCGTACTTTCGCTTTACTCAGATTTTGGACCGCGGG registered an RUNX1 binding intensity of 1320.
With TGTAGAGGAGGTGGTTTCCATCACGCAAGGCCGAAG the figure was 766; with CCTGACTCTGGGTCTCCTCCCAGCCACAGACACCTG, 1000.
With AGAGCAACACGATGCAAATAACCACAAGCAAGAATA the figure was 1210; with AGCCTCTTGCTGCTCCTGATCAGCGGTTATCTTGCT, 731; with TGGTTGCCGGGCTGGGGTTAGAATAGGCCACAAGGT, 699.
With TTGGTTGTGTGGTCGCGTCTCGGCAACCGGTAGCGC the figure was 757; with CTCGCCCCATCTCCCGTAAATATCAGCCACAGACCA, 1410.
As to TGCTTACGGCTTGCAGGGAATAACTTGTGGTTTCCA, the RUNX1 binding intensity stood at 903.
Turning to GGCTTGCGCCTGCCGAGCGGCCCCGGACCGCAGGCC, the RUNX1 binding intensity came out at 746.
With GACGCATAAACATGAAGGCCTGCGGGAGGGCCCGCC the figure was 696; with ACCTCCGCTGACCACCCTGCAGGCGCAAGAACGGCC, 1090; with TGTATAACGTCCTCATGTTCTGTGGGTGAGTTGAGC, 753.
With CTGAAGCCACAAAATGACGTCACTTTGCTGCTTTCT the figure was 782; with AAACAAAGTCAAACCACAGCACTTCATGCATTCTGG, 873; with CCGGGTGGCCACAAACATCACCCGTAAGCCTGAATA, 871.
With TTGGGATTGTACCACACAAAGCACTTGCTGCACTGC the figure was 754; with CTGGTAAGGGAGCTGGCCAAAACCCACTGAAACCAA, 777; with TGGCATGATGCCGTTAAATATGTAACCACATGTCTC, 872.
Turning to AAGCACATGTGGTGGGGCTCTTGCGTGCTGGCCACA, the RUNX1 binding intensity is 605.
Take AGGCTTTCTGTTTTATCTCGTGTGTGTGGTGCACCA: the RUNX1 binding intensity came out at 886.
TGCACACCGCGCCGGGGTAGGAACGTCCTCCCACCT: the RUNX1 binding intensity amounted to 809.
With CGGTGTGAGGTGTGGCTTTGTCTTCATGAGCGGTGT the figure was 773; with GCATGCCCGACCGCACCCGCGGACTGGACCTACTTT, 1260 ± 160.
GCCTGGCCGCAGCTGCTGCTGAGCGAAAGTCTCTGA gave an RUNX1 binding intensity of 752.
CCAGGCGCAAGCGGCCGGGAGTAGCGCTGCGGTTGG showed an RUNX1 binding intensity of 701.
Consider GAGGAAAGGCAGTCAAGGCCAGGGCCGCAGAGGCCA, for which the RUNX1 binding intensity was found to be 753.
Take GGGGACGAAGCGGTCTCGGTTCAGCCCGGCTGGGAG: the RUNX1 binding intensity was found to be 692.
With GCCTTGCGGCGCAGGCCGCTCCCGTATGTGTGCCTG the figure was 924; with CTGCGCCTCCGCGGCGCCGCTCTGACCGCGCGAGGG, 723.
For TATTCTTGCTTGTGGTTATTTGCATCGTGTTGCTCT, the RUNX1 binding intensity is 3110.
With GCCAAGAGGGAGACCGCGTGCCTTTCGTGCAGCCGA the figure was 762.
Take AGGAGTGTCACCTCCTCTTTCCTCACCACAGCCTCC: the RUNX1 binding intensity is 1260.
The sequence TGTGTGGGTTTCTGGACTATGGGGCTCCCTGGAAGT came in with an RUNX1 binding intensity of 703.
With TGGAAGCGGCTTACGGGGTGAATGCGGTTGGATCGT the figure was 896.
With TCTGTCGCACATACGGTGTGAGCTGCGGGGCGGTGG the figure was 787; with CGGGACCGCGGGCGGACTCAGCCCAGCAAGCGGCAG, 764; with AGAGCGAGGCTGCGGGACCCCAGGCTGGGGGACAGG, 727.
With GGGCAGGTGCTGCCTTCTCTCAGAAACCACTCCTCC the figure was 716; with GTGCAGGGCCCGGGAGCTCAGTGTGGTTAAAGACAT, 770.
For the sequence AAAGCCAACCACCAACCGAGAGCGAAAGTCGGGGAC, the RUNX1 binding intensity came to 827.
In the case of GCTTTGCAGTGTCCTCTATGGAACACCACACACAGT, the RUNX1 binding intensity was 809.
With CACCTCTCAGCAAGGACCGAGCCCGCAAGTCCCTCA the figure was 1050; with TCCTCCATGCAGCAAAACCTCTGTGGTCTGGGAGCT, 886; with ATAACTTGCGGCAAATGCTGGAGGCAGTACCGCCTT, 840.
With AAGTGAGCCATGTGGGTACGTGCGCAAGAATATTCA the figure was 776; with AGGTCCCGGCGAAAGTGACCGAAAGTAACCGCCGGG, 793; with CCGCTGAGCCTTCGGCCCAGGCCACCCGCACTCAGC, 680.

The values are drawn from the supplement of paper PMC10681739.
